Experimental data: PubChem BioAssay AID1345083 (National Center for Advancing Translational Sciences (NCATS), 2018)
Screen size: about 94,000 compounds; about 6,200 (6.6%) were called active. Inconclusive means that the source gave no clear call. Such entries were picked first, then a sample of the others. Calls come from the whole dose curve; as a rule, active = well fitted inhibition curve with a large enough effect; inconclusive = small, poorly fitted or top-dose-only effect; inactive = flat fitted curve, though single readings scatter. Potencies beside an inconclusive call are fits to weak or partial responses and may not hold up.

assay: Cytotoxic Profiling in HEK 293 Cell Line of Diverse Libraries Using Quantitative High-Throughput Screening; conditions: HEK 293 viability, ATP luminescence (CellTiter-Glo), 48-72 h; series mostly up to 115 µM; note: nearly all actives have a fitted effect of over 60% in size
In short: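 250 HEK 293 cells/well; compound by pintool; incubated 48 or 72 hr at 37 degree Celsius; CellTiter-Glo added, 10 min RT, luminescence imaged.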
Potency is the fitted concentration of half-maximal effect; tags give direction and shape of the fitted curve.

Row | Structure (SMILES) | Potency
1 | CCOc1ccc(C(=O)N2CCC[C@H]2c2nc(-c3ccc(OC)cc3)no2)cc1OCC | inactive
2 | Cc1nc2c(NC(=O)Nc3cccc(C(F)(F)F)c3)cccn2n1 | active: 35.5 µM
3 | Cc1nn2c(c1-c1ccccc1-c1ccccc1)N(Cc1ccc(OCC(=O)O)cc1)CCC2 | inconclusive: 56.2 µM [inhibitor, partial curve, poor fit]
4 | Cc1cc2occ(CC(=O)N3CCCn4nc(CO)cc4C3)c2cc1Cl | inactive
5 | Cc1ccc(CN2C(=O)[C@@H]3C[C@@H](O)CN3C3(CN(CC4CCCCC4)C3)C2=O)o1 | inactive
6 | CCOC(=O)[C@H]1[C@@H](O)C(=O)NC12CCN(C(=O)OCC(C)C)CC2 | inconclusive: 79.4 µM [inhibitor, single point]
7 | CC1(c2ccccc2)N(Cc2cccnc2)C(=O)OC12CCN(C(=O)COc1ccccc1C(N)=O)CC2 (stereo unspecified) | inactive
8 | O=C(C1CCCC1)N1CC2(CCCCN2Cc2cccnc2)Cc2ccccc21 (stereo unspecified) | inconclusive: 50.1 µM [inhibitor, partial curve, poor fit]
9 | Fc1ccc(CNC2(Cc3cc(-c4ccccn4)on3)COC2)cc1 | inconclusive: 35.5 µM [inhibitor, partial curve, poor fit]
10 | Cc1ccsc1CN1CCC(n2c(C3CC3)nn(C)c2=O)CC1 | inactive
11 | O=C(NC1CCCN(c2cc(-c3ccc(F)cc3)[nH]n2)C1)c1ccc(F)cc1Cl (stereo unspecified) | inconclusive: 39.8 µM [inhibitor, full curve, poor fit]
12 | CC(C)Cc1cc(CN2CCC(CO)(CN3CCCC3)CC2)[nH]n1 | inconclusive: 89.1 µM [inhibitor, single point]
13 | CNC(=O)c1cc(C2CC2)nc2onc(C3CCN(C(=O)c4ccc(OC)cc4)C3)c12 (stereo unspecified) | inconclusive: 22.4 µM [inhibitor, full curve, poor fit]
14 | O=C(c1cc(-c2ccsc2)c2nncn2n1)N1CCOCC1 | inactive
15 | O=C(Nc1cccc(-c2nnc3n2CCCC3)c1)c1ccc2c(c1)OCO2 | inconclusive: 89.1 µM [inhibitor, single point]
16 | CN(C)c1ccc(CN2CCC3(CN[S+](=O)([O-])c4ccccc4N3)C2)cc1 (stereo unspecified) | inactive
17 | CCOc1ccc(CN2CCCC(COc3ccccc3C(=O)NC(C)C)C2)cc1 (stereo unspecified) | inconclusive: 50.1 µM [inhibitor, partial curve, poor fit]
18 | COc1ccc(Nc2cc3c(cn2)CN(Cc2ccncc2)CCN3)cc1OC | inconclusive: 100 µM [inhibitor, partial curve]
19 | O=C(Nc1ccnn1C1CCN(Cc2ccc3c(c2)CCO3)CC1)c1ccccc1Cl | inconclusive: 100 µM [inhibitor, single point]
20 | CC(=O)N1CCCN(Cc2nc(-c3cccc(Oc4ccccc4)c3)oc2C)CC1 | inconclusive: 50.1 µM [inhibitor, partial curve, poor fit]
21 | CCc1nc2c(c(-c3ccc(Cl)cc3)n1)CN(CCC(C)C)CC2 | inconclusive: 79.4 µM [inhibitor, partial curve, poor fit]

Row | Structure (SMILES) | Potency
22 | O=C1CC2(CCN(Cc3ccc(F)cc3)CC2)Oc2ccccc2N1 | inconclusive: 89.1 µM [inhibitor, single point]
23 | Cc1ccc(OCc2nc(C3CCN(C(=O)c4c5c(nc6ccccc46)CCCC5)CC3)no2)cc1 | inconclusive: 70.8 µM [inhibitor, partial curve, poor fit]
24 | CN1CC(=O)N(C2CCC2)Cc2c(NC3CC3)ncnc21 | inactive
25 | CC(=O)Nc1ccc(S(=O)(=O)N[C@H]2C[C@@H](c3nc(-c4ccc(F)cc4)no3)N(C)C2)cc1 | inconclusive: 44.7 µM [inhibitor, partial curve, poor fit]
26 | O=C(Cc1c[nH]c2ncc(-c3cccnc3)cc12)Nc1ccc(F)cc1 | inconclusive: 112 µM [inhibitor, partial curve]
27 | O=C(N1CCC2(CC1)CN(c1ccncn1)CC2CO)C1(c2ccccc2)CC1 (stereo unspecified) | inactive
28 | C=Cc1ccc(Cn2c(=O)c(-c3noc(CC)n3)c3n(c2=O)CCCC3)cc1 | inconclusive: 44.7 µM [inhibitor, partial curve, poor fit]
29 | C=CCOc1c(OC)ccc2c1CN(CC=C)C(=O)CCN2CC(O)COc1ccc(OC)cc1 (stereo unspecified) | inconclusive: 35.5 µM [inhibitor, partial curve, poor fit]
30 | O=C(CC1CCN(S(=O)(=O)c2ccc3c(c2)CCCC3)C1)NCc1ccccc1 (stereo unspecified) | inconclusive: 70.8 µM [inhibitor, single point]
31 | Cc1cnc(CC2CCN(S(=O)(=O)c3ccc4c(c3)CCC4)C2)n1CC1CC1 (stereo unspecified) | active: 50.1 µM
32 | CC(C)c1ccc(CC(=O)N2CCCc3ncc(C(=O)NCc4ccccc4)cc32)cc1 | active: 89.1 µM
33 | Cc1ccc(Cn2c(-c3cccc(Cl)c3)nc(C)c(CCO)c2=O)cc1 | inconclusive: 50.1 µM [inhibitor, partial curve, poor fit]
34 | O=C1c2c(nc(COc3cccnc3)n2Cc2ccccc2)NCCN1CCOc1ccccc1 | inconclusive: 79.4 µM [inhibitor, partial curve]
35 | Cc1cc(C(=O)N[C@@H]2CN(Cc3ccccc3)C[C@H]2CO)c(C)o1 | inconclusive: 56.2 µM [inhibitor, partial curve, poor fit]
36 | CC(C)N1C[C@H](O)C[C@H]1c1nnc2n1CCN(C(=O)c1ccoc1)C2 | inconclusive: 89.1 µM [inhibitor, single point]
37 | COc1cccc(CNC(=O)c2nc3cccnc3n(C3CC3)c2=O)c1 | inactive
38 | COc1ccc2nc([C@H]3CCN(Cc4ccc(F)cc4)C3)[nH]c2c1 | active: 79.4 µM
39 | CN1CCN([C@@H]2[C@H](O)[C@H](CO)O[C@@H]2CNS(=O)(=O)c2ccccc2)CC1 | inactive
40 | O=C(c1cc(C2CC2)[nH]n1)N1CCOC(Cc2cccc(C(F)(F)F)c2)C1 (stereo unspecified) | inconclusive: 56.2 µM [inhibitor, partial curve, poor fit]
41 | COc1ccccc1CNC(=O)c1cc2c(N3CCCC3)nc(C)cn2n1 | inconclusive: 89.1 µM [inhibitor, single point]
